We go through one substance from article PMC11335210.

By UniProt entry, the sequences of proteins in these tests, tags left out.
UniProt Q9QUI0: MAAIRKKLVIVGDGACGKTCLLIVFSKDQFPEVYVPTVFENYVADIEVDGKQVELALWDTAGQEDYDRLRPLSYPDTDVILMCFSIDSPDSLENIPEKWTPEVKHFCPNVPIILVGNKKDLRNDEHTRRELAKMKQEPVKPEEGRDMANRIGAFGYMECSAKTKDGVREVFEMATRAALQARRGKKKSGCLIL

These are yes or no findings as the source states them, for the method shown. In cells and extracts the contact can be indirect. Some binding calls cover weakened binding; strength is not graded here. For some assays here: Tags and fused reporters may be left off the sequences shown.

The target of test [1] is T1, ARHGEF2 (also called GEFH1) (mouse (endogenous in mouse keratinocytes)) (UniProt Q60875).
T1 sequence: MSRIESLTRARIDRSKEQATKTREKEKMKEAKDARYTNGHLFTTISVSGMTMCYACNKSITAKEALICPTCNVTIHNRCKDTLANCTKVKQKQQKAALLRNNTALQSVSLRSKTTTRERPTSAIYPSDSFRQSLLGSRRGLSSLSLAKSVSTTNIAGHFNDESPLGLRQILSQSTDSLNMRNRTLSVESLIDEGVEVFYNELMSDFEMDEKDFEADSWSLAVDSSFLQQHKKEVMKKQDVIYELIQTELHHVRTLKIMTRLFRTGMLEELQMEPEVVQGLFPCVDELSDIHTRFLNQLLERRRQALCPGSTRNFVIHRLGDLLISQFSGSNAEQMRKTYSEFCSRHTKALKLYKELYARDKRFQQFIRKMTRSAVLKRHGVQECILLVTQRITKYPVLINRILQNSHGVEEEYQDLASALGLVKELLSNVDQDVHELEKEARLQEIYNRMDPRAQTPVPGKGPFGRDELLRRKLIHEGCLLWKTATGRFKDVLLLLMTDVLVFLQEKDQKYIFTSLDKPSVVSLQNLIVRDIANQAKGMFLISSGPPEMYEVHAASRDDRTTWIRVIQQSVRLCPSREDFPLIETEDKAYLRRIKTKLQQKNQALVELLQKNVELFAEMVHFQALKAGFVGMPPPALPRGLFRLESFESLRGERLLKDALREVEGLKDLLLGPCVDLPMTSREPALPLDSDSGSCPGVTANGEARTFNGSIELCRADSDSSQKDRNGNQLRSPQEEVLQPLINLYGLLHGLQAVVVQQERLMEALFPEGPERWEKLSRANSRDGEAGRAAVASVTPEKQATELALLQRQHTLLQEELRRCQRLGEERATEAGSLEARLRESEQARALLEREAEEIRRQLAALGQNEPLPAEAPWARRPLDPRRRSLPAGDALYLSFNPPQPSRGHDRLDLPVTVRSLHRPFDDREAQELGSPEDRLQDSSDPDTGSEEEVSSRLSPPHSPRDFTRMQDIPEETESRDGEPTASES
Put plainly: co-IP; anti-ARHGEF2 antibody and Protein A agarose on lysates of WT and PKP4-KO keratinocytes kept 24 h in HCM; normal rabbit IgG as control; IP buffer with 1% NP-40, 137 mM NaCl; western blot.

Test [2] concerns the target T2, human PKP4 N-terminally tagged with EGFP (EGFP-PKP4-WT) (human) (UniProt Q99569).
T2 sequence: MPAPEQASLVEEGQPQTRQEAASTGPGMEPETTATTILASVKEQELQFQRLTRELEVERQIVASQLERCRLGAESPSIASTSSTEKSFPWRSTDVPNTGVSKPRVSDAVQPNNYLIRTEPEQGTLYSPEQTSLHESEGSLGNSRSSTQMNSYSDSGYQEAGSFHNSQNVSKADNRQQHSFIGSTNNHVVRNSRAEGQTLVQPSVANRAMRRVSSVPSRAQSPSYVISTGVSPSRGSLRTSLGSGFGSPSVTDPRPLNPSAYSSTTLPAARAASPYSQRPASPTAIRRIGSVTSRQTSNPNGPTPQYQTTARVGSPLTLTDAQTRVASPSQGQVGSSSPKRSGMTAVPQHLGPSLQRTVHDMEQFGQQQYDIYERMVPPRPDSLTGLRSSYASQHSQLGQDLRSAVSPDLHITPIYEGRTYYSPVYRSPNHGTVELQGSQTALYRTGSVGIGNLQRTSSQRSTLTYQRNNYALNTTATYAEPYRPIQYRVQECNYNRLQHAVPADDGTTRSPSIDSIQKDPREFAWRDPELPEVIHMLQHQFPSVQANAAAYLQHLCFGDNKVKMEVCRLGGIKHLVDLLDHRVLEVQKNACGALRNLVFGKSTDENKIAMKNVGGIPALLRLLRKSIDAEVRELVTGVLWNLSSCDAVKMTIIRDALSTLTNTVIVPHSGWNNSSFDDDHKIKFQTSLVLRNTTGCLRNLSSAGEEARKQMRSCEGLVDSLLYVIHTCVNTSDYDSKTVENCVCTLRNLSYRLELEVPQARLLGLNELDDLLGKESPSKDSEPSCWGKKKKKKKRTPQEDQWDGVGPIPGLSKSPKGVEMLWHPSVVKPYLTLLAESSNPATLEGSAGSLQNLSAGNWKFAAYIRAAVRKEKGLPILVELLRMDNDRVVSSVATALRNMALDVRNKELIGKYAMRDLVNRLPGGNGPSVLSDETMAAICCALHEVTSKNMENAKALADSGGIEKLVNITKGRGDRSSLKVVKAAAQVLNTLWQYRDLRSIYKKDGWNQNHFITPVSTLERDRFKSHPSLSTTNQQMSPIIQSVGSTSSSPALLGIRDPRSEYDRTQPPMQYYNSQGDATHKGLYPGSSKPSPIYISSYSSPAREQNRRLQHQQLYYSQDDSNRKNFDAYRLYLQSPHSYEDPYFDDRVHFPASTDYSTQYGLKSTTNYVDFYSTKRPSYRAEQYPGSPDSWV
Put plainly: co-IP; GFP-Trap Agarose on lysates of PKP4-KO + GFP-PKP4 (Rescue) keratinocytes, WT + GFP cells as control; IP buffer 20 mM Tris-HCl pH 7.5, 137 mM NaCl, 2 mM EDTA, 10% glycerol, 1% NP-40; 1 h at 4 °C; western blot. For orientation: Immunoblotting shows a protein as a band on a membrane.

As for RhoA (from UniProt Q9QUI0 1-193), the binding entry was “binds” in test [1] and “no binding” in test [2].
